Publication PMC4336329 (PLoS ONE, 2015)
Out of some 310,000 compounds screened, about 14,000 (4.5%) showed an effect of 50% or more. The effect is printed as a negative number. This is one part of the list.

biological target: human ether-à-go-go-related gene (hERG) potassium channel (human, UniProt Q12809); test: primary screen, population patch clamp on CHO cells stably expressing hERG
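Note: peak tail current of the secondary pulse compared with the same well before compound.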

human ether-à-go-go-related gene (hERG) potassium channel, sequence (Q12809 whole entry, looked up): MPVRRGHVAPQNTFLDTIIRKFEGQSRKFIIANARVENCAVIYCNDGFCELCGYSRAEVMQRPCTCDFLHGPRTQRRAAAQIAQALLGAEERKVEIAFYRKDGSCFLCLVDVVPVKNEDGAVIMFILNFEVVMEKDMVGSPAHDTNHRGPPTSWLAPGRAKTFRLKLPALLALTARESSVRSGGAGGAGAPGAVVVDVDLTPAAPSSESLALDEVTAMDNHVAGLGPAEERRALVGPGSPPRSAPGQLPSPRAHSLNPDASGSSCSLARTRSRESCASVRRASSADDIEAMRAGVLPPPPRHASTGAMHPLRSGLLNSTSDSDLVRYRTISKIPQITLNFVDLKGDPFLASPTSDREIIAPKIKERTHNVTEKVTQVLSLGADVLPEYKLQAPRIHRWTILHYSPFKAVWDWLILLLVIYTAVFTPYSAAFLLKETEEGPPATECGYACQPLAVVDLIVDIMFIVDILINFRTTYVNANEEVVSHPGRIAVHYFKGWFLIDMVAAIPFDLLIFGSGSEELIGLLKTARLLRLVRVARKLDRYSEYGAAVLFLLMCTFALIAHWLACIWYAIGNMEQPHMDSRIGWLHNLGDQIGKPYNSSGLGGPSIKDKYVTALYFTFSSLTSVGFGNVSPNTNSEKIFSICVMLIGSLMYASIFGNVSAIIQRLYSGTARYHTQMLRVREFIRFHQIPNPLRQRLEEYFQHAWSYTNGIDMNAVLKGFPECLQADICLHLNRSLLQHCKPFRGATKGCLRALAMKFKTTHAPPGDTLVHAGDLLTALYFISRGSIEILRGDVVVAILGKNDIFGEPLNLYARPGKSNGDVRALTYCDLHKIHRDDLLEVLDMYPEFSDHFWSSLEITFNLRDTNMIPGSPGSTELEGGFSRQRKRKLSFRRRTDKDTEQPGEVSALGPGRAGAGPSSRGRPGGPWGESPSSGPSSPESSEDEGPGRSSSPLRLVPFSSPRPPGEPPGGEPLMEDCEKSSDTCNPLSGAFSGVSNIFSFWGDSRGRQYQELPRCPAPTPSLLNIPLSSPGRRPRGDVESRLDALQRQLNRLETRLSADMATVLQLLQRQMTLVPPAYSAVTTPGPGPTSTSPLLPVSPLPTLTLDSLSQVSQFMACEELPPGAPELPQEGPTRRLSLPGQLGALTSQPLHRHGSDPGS

First: COc1ccc(-n2ccnc(SCC(=O)NCc3ccccc3Cl)c2=O)cc1
Second: O=C(COC(=O)Cn1cnc2ccccc2c1=O)Nc1ccc(Cl)cc1
The “hERG current change (%, negative = inhibition) at 10uM” value of the first is lower: -22.7% for the first, -12.1% for the second.

Compared with `Cc1cnc(-c2nnc(N(C)C(=O)c3cccnc3)s2)cn1`, `Cc1ccccc1CSc1nnc(-c2ccccn2)n1N` is lower in “hERG current change (%, negative = inhibition) at 10uM” value: 9.2% for the first, 1.45% for the second.

First: CC(O)(C#CCN1CCCC1)c1ccccc1 (stereo not shown)
Second: COC(=O)[C@H](C)NC(=O)NC1CCN(Cc2ccccc2)CC1
The “hERG current change (%, negative = inhibition) at 10uM” value of the first is lower: -2.57% for the first, -1.96% for the second.

Going from `C=CCSc1nccc(-c2nn(-c3ccc(C)cc3)ccc2=O)n1` to `Clc1cccc(CSc2ncn(-c3ccccc3)n2)c1`, the “hERG current change (%, negative = inhibition) at 10uM” value rises from -8.82% to -8.62%.

First: CCCCn1c(NC(=O)c2ccc(F)cc2)c(C#N)c2nc3ccccc3nc21
Second: NNC(=O)c1ccc(-c2ccccc2F)cc1
The “hERG current change (%, negative = inhibition) at 10uM” value of the first is higher: 6.88% for the first, 1.61% for the second.

Compared with `O=C(COC(=O)c1ccc(Cl)nc1)Nc1ccc(S(=O)(=O)N2CCCC2)cc1`, `Cc1ccc(S(=O)(=O)N2CCC(=O)N(CCOCc3cccc(Cl)c3)CC2)cc1` is lower in “hERG current change (%, negative = inhibition) at 10uM” value: -31.5% for the first, -36.7% for the second.

Going from `CCOc1ccccc1N(CC(=O)NCC1CCCO1)C(=O)CCC(=O)Nc1nccs1` (stereo not shown) to `Cc1c(C(=O)N(Cc2ccc(N(C)C)cc2)CC2CCCO2)oc2ccccc12` (stereo not shown), the “hERG current change (%, negative = inhibition) at 10uM” value falls from -7.36% to -26.5%.

First: C#Cc1cccc(NC(=O)C2CCN(C(C)=O)CC2)c1
Second: COc1ccc(NC(=O)C2CCN(S(=O)(=O)c3ccc4c(c3)CC(C)N4C(C)=O)CC2)c(OC)c1 (stereo not shown)
The “hERG current change (%, negative = inhibition) at 10uM” value of the first is higher: 25.8% for the first, -13.7% for the second.

Going from `CSc1ccccc1NC(=O)CN(C)CC(=O)Nc1ccc(Cl)cc1F` to `Cn1cc(CCC(=O)NCc2ccc(Cl)cc2)c2ccccc21`, the “hERG current change (%, negative = inhibition) at 10uM” value rises from -31.4% to 9.36%.

Compared with `CCCCCCNC(=O)CCNC(=O)c1cc(OC)c(OC)c(OC)c1`, `COC(=O)c1ccc(CNC(=O)Cn2nnnc2CN(C)C(C)C)cc1` is higher in “hERG current change (%, negative = inhibition) at 10uM” value: -3.86% for the first, 15.3% for the second.

Going from `CC1CCN(Cc2c(C(=O)N/N=C/c3cccc(C(F)(F)F)c3)nnn2-c2nonc2N)CC1` to `CC1CCN(C(=O)CSc2nnc(-c3ccccc3F)o2)CC1`, the “hERG current change (%, negative = inhibition) at 10uM” value falls from 13.1% to -8.38%.

Going from `Cc1cc(S(=O)(=O)N2CCOCC2)ccc1OCC(=O)NCCCn1ccnc1` to `O=C(COc1coc(CN2CCN(c3ccccc3F)CC2)cc1=O)Nc1ccccc1`, the “hERG current change (%, negative = inhibition) at 10uM” value rises from 10.2% to 30.9%.

First: Cc1ccc(-n2c(C)cc(C)c(C#N)c2=O)cc1C
Second: COCC(=O)N(Cc1cc2ccc(C)cc2[nH]c1=O)c1ccc(C)cc1C
The “hERG current change (%, negative = inhibition) at 10uM” value of the first is higher: 22.7% for the first, 4.32% for the second.

Compared with `CC1=CC(C)C2(CO)COC(c3ccc(O)cc3)C1C2C` (stereo not shown), `CC1/C(=N/O)CC(c2ccccc2)NC1c1ccccc1` (stereo not shown) is lower in “hERG current change (%, negative = inhibition) at 10uM” value: 24.9% for the first, 2.45% for the second.

Compared with `Cc1cc(C)cc(NC(=O)CN(C)S(=O)(=O)c2cccc3nsnc23)c1`, `CCC(=O)c1ccc(OCC(=O)Nc2cccc(S(=O)(=O)N(C)c3ccccc3)c2)cc1` is higher in “hERG current change (%, negative = inhibition) at 10uM” value: -25.9% for the first, -19.6% for the second.

First: COc1ccc(-c2nn(CCC#N)cc2/C=N/O)cc1OC
Second: COc1ccc(-c2nnc(SCC(=O)N3CCN(c4ccccc4)CC3)o2)cc1OC
The “hERG current change (%, negative = inhibition) at 10uM” value of the first is lower: -4.29% for the first, 10% for the second.

First: CC[C@@H]1CC=C[C@H]2[C@H]1C(=O)N(Cc1ccccc1)[C@H]2c1ccc(C(F)(F)F)cc1
Second: Cc1nc2ccccc2nc1OCc1ccccc1
The “hERG current change (%, negative = inhibition) at 10uM” value of the first is higher: 6.12% for the first, -16.2% for the second.

Compared with `NC(=O)Nn1c(CCC(=O)O)ccc1-c1ccc(Cl)cc1`, `Cn1c(=O)oc2cc(S(=O)(=O)NCc3ccc(Cl)cc3)ccc21` is lower in “hERG current change (%, negative = inhibition) at 10uM” value: -2.79% for the first, -13% for the second.

Going from `Cn1c(Cn2c(=O)sc3ccccc32)nnc1SCC(=O)NCc1ccc2c(c1)OCO2` to `N#C/C(=C\c1cn(CC(=O)N2CCCC2)c2ccccc12)C(=O)NCc1ccc2c(c1)OCO2`, the “hERG current change (%, negative = inhibition) at 10uM” value rises from -9.47% to -6.91%.

Compared with `CCOc1ccc(NC(=O)Cn2cc(C(=O)CC)c3ccccc32)cc1`, `CCn1c(=O)cc(OCC(=O)Nc2ccccc2C#N)c2ccccc21` is lower in “hERG current change (%, negative = inhibition) at 10uM” value: 14.7% for the first, 6.06% for the second.

First: CCN(c1nc(C)cc(OC)n1)S(=O)(=O)c1ccccc1
Second: CCN(CC)C(=O)c1c(NC(=O)c2ccccc2)sc(C)c1C
The “hERG current change (%, negative = inhibition) at 10uM” value of the first is lower: -20% for the first, -6.01% for the second.

First: Nc1ccc(CN2CCOCC2)cc1
Second: COc1cccc(CN2CCN(C(=S)NCc3ccc(Cl)cc3)CC2)c1
The “hERG current change (%, negative = inhibition) at 10uM” value of the first is higher: 22.3% for the first, -14.9% for the second.

First: CC(C)C[C@H]1COCCS(=O)(=O)N1Cc1ccccc1F
Second: COC(C/C=C\C(=O)[C@@H](C)OCc1ccccc1)OC
The “hERG current change (%, negative = inhibition) at 10uM” value of the first is lower: -18.4% for the first, 3.6% for the second.

Compared with `C=C(C)C1CC=C(C)/C(=N/NC(=O)COc2ccc(C)cc2)C1` (stereo not shown), `CC(C)COc1ccc(C(=O)Nc2ccc([N+](=O)[O-])cc2)cc1` is higher in “hERG current change (%, negative = inhibition) at 10uM” value: 14.6% for the first, 26.9% for the second.

First: CCOc1ccc2nc(N3CCC(C(=O)N4CCN(C(=O)c5ccco5)CC4)CC3)sc2c1
Second: Cc1nc(SCC(=O)N2CCN(C(=O)c3ccco3)CC2)c2c(C)c(C)sc2n1
The “hERG current change (%, negative = inhibition) at 10uM” value of the first is lower: -81.7% for the first, -66.8% for the second.

First: O=C(NCc1cccnc1)C(C(=O)c1ccc(F)cc1)n1ccccc1=O (stereo not shown)
Second: CC(=O)c1ccc(OC(=O)N(C)c2ccccc2)cc1
The “hERG current change (%, negative = inhibition) at 10uM” value of the first is lower: -6.73% for the first, 11% for the second.

First: Cc1cc(C(=O)COC(=O)c2ccc[nH]c2=O)c(C)n1CCc1ccc(F)cc1
Second: Cc1ccc(C2(c3ccc(C)cc3)NC(=O)N(CC(N)=O)C2=O)cc1
The “hERG current change (%, negative = inhibition) at 10uM” value of the first is lower: -16.6% for the first, -12.4% for the second.

First: CC(C)(C)NC(=O)c1ccc2c3c(cccc13)CC2
Second: C/C(=N/NC(=O)c1cc2ccccc2cc1O)c1ccco1
The “hERG current change (%, negative = inhibition) at 10uM” value of the first is lower: -51.4% for the first, 1.77% for the second.

Compared with `CNC(=S)N/N=C(\C)c1ccc(-n2ccnc2)cc1`, `COc1ccc(NC(=S)NCc2ccc(F)cc2)c(OC)c1` is higher in “hERG current change (%, negative = inhibition) at 10uM” value: -21.5% for the first, 1.54% for the second.

First: COCCN(C(=O)c1c(C)noc1C)c1c(N)n(CC(C)C)c(=O)[nH]c1=O
Second: Cc1ccc2cc(CN(CCN(C)C)C(=O)Nc3ccc(Cl)cc3)c(=O)[nH]c2c1
The “hERG current change (%, negative = inhibition) at 10uM” value of the first is higher: 12.2% for the first, -70.5% for the second.

First: Cc1cc(Nc2ccc(Cl)cc2)nc(N)n1
Second: Cc1ccc(CN2CC(C(=O)Nc3ccc(S(=O)(=O)Nc4cc(C)nc(C)n4)cc3)CC2=O)cc1 (stereo not shown)
The “hERG current change (%, negative = inhibition) at 10uM” value of the first is lower: -30.8% for the first, 15.6% for the second.

Going from `FC(F)(F)c1ccc(Sc2nnc(-c3cccs3)n2CC2CCCO2)nc1` (stereo not shown) to `O=C(CSc1nnc(Cc2cc(=O)[nH]c(=O)[nH]2)n1-c1ccc(F)cc1)NC1CCCC1`, the “hERG current change (%, negative = inhibition) at 10uM” value rises from -17.1% to 5.2%.

Going from `COc1ccc(CNc2cc(C)nc3ncnn23)c(OC)c1` to `COc1ccc(CNCc2cn(-c3cccc(F)c3)nc2-c2ccc(C)o2)cc1`, the “hERG current change (%, negative = inhibition) at 10uM” value falls from -8.93% to -55.5%.

Going from `Cc1c(NC(=O)/C=C/C(=O)O)cccc1[N+](=O)[O-]` to `CNC(=O)Nc1cccc(C(F)(F)F)c1`, the “hERG current change (%, negative = inhibition) at 10uM” value falls from 9.88% to -3.03%.

First: CCCOP(=O)(c1ccccc1)c1ccccc1
Second: COCCNc1nc(SCC(=O)N2CCN(c3ccccc3)CC2)nc2ccccc12
The “hERG current change (%, negative = inhibition) at 10uM” value of the first is higher: 10.1% for the first, -86.9% for the second.

First: CN1C(=O)N(C)C(=O)C2(Cc3cc(NC(=O)c4ccc(F)cc4)ccc3N3CCCC32)C1=O (stereo not shown)
Second: Cc1nc(N2CCN(C)CC2)c2c(C)c(C(=O)Nc3ccc(C)c(F)c3)sc2n1
The “hERG current change (%, negative = inhibition) at 10uM” value of the first is higher: -8.77% for the first, -40.8% for the second.

Going from `O=C(COc1coc(CN2CCc3ccccc32)cc1=O)N1CCCCC1` to `CCOC(=O)N1CCN(CC(O)COc2ccc3c(c2)CCC3)CC1.Cl` (stereo not shown), the “hERG current change (%, negative = inhibition) at 10uM” value falls from -4.83% to -18.1%.

Going from `O=C(Cc1ccccc1)N/N=C/c1ccc2c(c1)OCO2` to `S=c1[nH]nc(COc2ccccc2)n1/N=C/c1ccccc1Cl`, the “hERG current change (%, negative = inhibition) at 10uM” value rises from 6.11% to 24.6%.

Compared with `CCn1c(=Nc2ccc(N3CCOCC3)cc2)ccc2ccccc21`, `Clc1ccc(-c2c(C3=NCCCN3)nnn2-c2ccc(Cl)cc2)cc1` is higher in “hERG current change (%, negative = inhibition) at 10uM” value: -66.8% for the first, -45.1% for the second.

Compared with `Fc1ccc(CSc2nnc(Cc3sc(-c4ccccc4)nc3-c3ccccc3)o2)cc1`, `COc1ccc(-c2cc(C(F)(F)F)c(C#N)c(SCC(=O)Nc3ccc(C)cc3)n2)cc1` is lower in “hERG current change (%, negative = inhibition) at 10uM” value: 19.2% for the first, -0.803% for the second.

Going from `O=C(NCc1cccc(CNC(=O)C(=O)NCc2ccco2)c1)C(=O)NCc1ccco1` to `O=C(O)c1cccc(N2C(=O)c3cccc4c(Cl)ccc(c34)C2=O)c1`, the “hERG current change (%, negative = inhibition) at 10uM” value rises from -25.7% to 21.6%.

First: Cc1ccc(-n2ncc(C(=O)NC3CC3)c2C2CCN(C(=O)OC(C)(C)C)CC2)c(C)c1
Second: Cc1cc(C)cc(-n2ncc3c2CCCC3NC(=O)C2(C(N)=O)CC2)c1 (stereo not shown)
The “hERG current change (%, negative = inhibition) at 10uM” value of the first is lower: 1.48% for the first, 13.7% for the second.

Going from `CCCS(=O)(=O)c1nc(C)cc(C)c1S(C)(=O)=O` to `Nc1nc(NCCO)nc(NC2CCCCC2)c1[N+](=O)[O-]`, the “hERG current change (%, negative = inhibition) at 10uM” value falls from 16.8% to -4.71%.

First: COC1=C(Nc2ccc(O)cc2)C(=O)c2ccccc2C1=O
Second: S=C(Nc1ccc(Cl)c(Cl)c1)NC1CCCCC1
The “hERG current change (%, negative = inhibition) at 10uM” value of the first is lower: -10.4% for the first, -4.21% for the second.
